Here are results for 21 variants from the RNAGym collection of RNA variant scans (doi:10.7554/elife.90254).

The source gives no read counts; variants with many changes may rest on few reads.

B1: OR4K15 (parent)
chain: GUUAACGGUCAUAGGCCAUGGAAACUAGGAGCACCAUUUCGCUGCCAGUGAAGAAAUGAACAAAGAAAAUCUGGGCCAGGCAGGCAUCAAAAGAAAUAGUCUUGCGCUCAACCAGAAAGUCUGUAAUCAUUUUAAGGGUA

Variants of B1 are the subject of this series. As to the kind of experiment: self-cleavage, relative activity (ratio to wild type); higher = more cleavage; in vitro, sequencing; the parent is a self-cleaving ribozyme.
On to GUUAACGGUCAUAGGCCAUGGAAACUAGGAGCACCAUUUCGUUGCCAGUGAAGAAAUGAACAAAGAAAAUCUGGGCCAGGCAGGCAUCAAAAGAAAUAGUCAUGCGCUCAACCAGAAAGUCUGUAAUCAUUUUAAGGGUG, for which the self-cleavage worked out at 0.48.

Turning to GUUAACGGUCAUAGGCCAUGGAAACUAGGAGCACCAUUUCGUUGCCAGUGAAGAAAUGAACAAAGAAAGUCUGGGCCAGGCAGGCAUCGAAAGAAAUAGUCUUGCGCUCAACCAGAAAGUCUGUAAUCAUUUUAAGGGUA, the self-cleavage was 1.83.

Consider GUUAACGGUCAUAGGCCAUGGAAACUAGGAGCACCAUUUCGCAGCCAGUGUAGAAAUGAACAAAGAAAAUCUGGGCCAGGCAUGCAUCAAAAGAAAUUGUCUUGCGCUCAACCAGGAAGUCUGUAAUCAUUUUAAGGGUA, for which the self-cleavage was found to be 0.23.

Consider GUUAACGGUCAUAGGCCAUGGAAACUAGGAGCACCAUUUCUCUGCCAGUGAAGAAAUGAACUAAGAAAAUCUGGGCCAGGCAGGCAUCAAAAGAAAUAGUCUUGCGCUCAACCAGAAAGUCUGUAAUCACUUUAAGGGUA, for which the self-cleavage stood at 0.43.

GUUAACGGUCAUAGGCCAUGGAAACUAGGAGCACCAUUUCGAUGCCAGUGAAGUAAUGAACAAAGAAAAUCUGGGCCAGGCAGGCAUCAAAAGAAAUAGGCUUGCGCUCAACCAGAAAGUCUGUAAUCAUUUUAAGGGUA: the self-cleavage is 1.03.

Regarding GUUAACGGUCAUAGGCCAUGGAAACUAGGAGCACCAUUUCGCAGCCAGUGAGGAAAUGAACAAAGAAAAUCUGGGCCAGGCAGGCAUCAAAAGAAAUAGUCAUGCGCUCUACCAGAAAGUCUGUAAUCAUUUUAAGGGUA, the self-cleavage amounted to 0.91.

With GUUAACGGUCAUAGGCCAUGGAAACUAGGAGCACCAUUUCGGUGCCAGUGAAGAAAUGAACAAAGAAAAUCUGGGCCAGGCAGGCAUCAAAAGAAAUAGUCUUGCGCUCAACCAGGAAGUCCGUAAUCAUUUUAAGGGUA, the self-cleavage stood at 0.71.

GUUAACGGUCAUAGGCCAUGGAAACUAGGAGCACCAUUUCGAUGCCAGUGAAGAAAUGGACAAAGAAAAUAUGGGCCAGGCAGGCAUCAAAAGAGAUAGUCUUGCGCUCAACCAGAAAGUCUGUAAUCAUUUUAAGGGUA: the self-cleavage is 0.9.

Take GUUAACGGUCAUAGGCCAUGGAAACUAGGAGCACCAUUUCUCUGCCAGUGUAGAAAUGAACAAAGAAUAUCUGGGCCAGGCAGGCAUCAAAAGAAAUAGUCCUGCGCUCAACCAGAGAGUCUGUAAUCAUUUUAAGGGUA: the self-cleavage came out at 2.67.

On to GUUAACGGUCAUAGGCCAUGGAAACUAGGAGCACCAUUUCGUUGCCAGUGAAGAAAUGAACAAAGAAAAUCUGGGCCAGGCAGGCAUCAAAAGAAAUAGUCUCGCGCUCAACCAGAAAGUCUGUAACCAUUUUAAGGGUA, for which the self-cleavage came out at 0.84.

As for GUUAACGGUCAUAGGCCAUGGAAACUAGGAGCACCAUUUCGCAGCCAGUGGAGAGAUGAACAAAGAAAAUCUGGGCCGGGCAGGCAUCAAAAGAAAUAGUCUUGCGCUCAACCAGAAAGUCUGUAAUCAUUUCAAGGGUA, the self-cleavage came out at 0.28.

With GUUAACGGUCAUAGGCCAUGGAAACUAGGAGCACCAUUUCGCAGCCAGUGUAGAAAUGAACAAAGAAGAUCUGGGCCAGGCAGGCAUCAAAAGAAAUAGUCUUGCGCUCAACCAGAAAGUCUGUAAUCAUUUUAAGGGUA, the self-cleavage was found to be 1.93.

Consider GUUAACGGUCAUAGGCCAUGGAAACUAGGAGCACCAUUUCGCAGCCGGUGAAGAAAUGAACAAAGAAAAUCUGGGCCAGGCAGGCAUCAAAAGAAAUAGUCUUGCGCUCAACCAGAAAGUCUGUAAUCGUUUUAAGGGUA, for which the self-cleavage was found to be 0.52.

As to GUUAACGGUCAUAGGCCAUGGAAACUAGGAGCACCAUUUCGUUGCCAGUGAAGAAAUGAACAUAGAAAAUCUGGGCCAGGCAGGCAUCAAAAGAAGUAGUCUUGCGCCCAACCAGAAAGUCUGUAAUCAUUUUAAGGGUA, the self-cleavage was determined as 0.02.

On to GUUAACGGUCAUAGGCCAUGGAAACUAGGAGCACCAUUUCUCUGCCAGUGAAGAAAUGAACAAAGAAAAUCUGGGCCAGGCUGGCAUCAAAAGAAAUAGUCUUGCGCUCAACCAGAAAGUCUGUAAUCACUCUAAGGGUA, for which the self-cleavage turned out to be 0.1.

Regarding GUUAACGGUCAUAGGCCAUGGAAACUAGGAGCACCAUUUCGUUGCCAGUGAAGAAAUGAACAAAGAAAAUCUGGGCCAGGCAGGCAUCAAAAGAGAUAGUCUUGCGCUCAACCAGAAAGUCUGUGAUCAUUUUAAGGGUA, the self-cleavage came to 1.21.

For GUUAACGGUCAUAGGCCAUGGAAACUAGGAGCACCAUUUCGCAGCCAGUGGAGAAAUGAACAAAGAAAAUCUGGGCCAGGCAGGCAUCAAAAGGAAUAGUCUUGCGCUCAACCAGAAAGUCUGUAAUCAUUUUAAGGGUA, the self-cleavage was found to be 1.96.

For the variant GUUAACGGUCAUAGGCCAUGGAAACUAGGAGCACCAUUUCGCAGCCAGUGAGGAAAUGAACAAGGAAAAUCUGGGCCAGGCAGGCAUCAAAAGAAAUAGUCUUGCGCUCAACCAGAAUGUCUGUAAUCAUUUUAAGGGUA, the self-cleavage came out at 1.02.

Consider GUUAACGGUCAUAGGCCAUGGAAACUAGGAGCACCAUUUCGCAGCCAGUGGAGAAAUGAACAAAGAAAAUCUGGGCCGGGCAGGCAUCAAAAGAAAUAGUCUUGCGCUCAACCAGAAAGUCUGUAAUCAUUUUAAGGGUA, for which the self-cleavage is 0.35.

As for GUUAACGGUCAUAGGCCAUGGAAACUAGGAGCACCAUUUCGUUGCCAGUGAAGAAAUGAACGAAGAAAAUCUGGGCCAGGCAGGCAUCAAAAGAAAUAGUCUUGCGCACAACCAGAAAGUCUGUAAUCAUCUUAAGGGUA, the self-cleavage worked out at 0.01.

On to GUUAACGGUCAUAGGCCAUGGAAACUAGGAGCACCAUUUCGCAGCCGGUGGCGAAAUGGACAAAGAAAAUCUGGGCCAGGCAGGCGUCAAAAGAAAUAGUCUUGCGCUCAACCAGAAAGUCUGUAAUCAUUUUAGGGGUA, for which the self-cleavage amounted to 0.91.
